In publication PMC7819943, “Rice protein-binding microarrays: a tool to detect cis-acting elements near promoter regions in rice” one finds binding signal data, which are given here for 42 sequences.

The list shows a part of the results.

The target of the assay is T1, OsWOX13 (Oryza sativa, UniProt Q5QMM3 1-267).
T1 sequence: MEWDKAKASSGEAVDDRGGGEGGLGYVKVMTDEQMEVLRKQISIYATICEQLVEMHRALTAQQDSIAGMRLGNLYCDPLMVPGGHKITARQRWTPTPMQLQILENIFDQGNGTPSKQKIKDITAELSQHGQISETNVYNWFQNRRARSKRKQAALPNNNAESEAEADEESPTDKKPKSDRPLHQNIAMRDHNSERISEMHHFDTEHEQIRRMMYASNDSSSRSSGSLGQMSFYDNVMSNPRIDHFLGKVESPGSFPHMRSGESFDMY
Nature of the assay: protein-binding microarray (RPBM); PBS, 2% BSA, 51.3 ng/ul salmon testes DNA, 50 uM zinc acetate, 200 nM TF, 25 C, 1 h; high values mean tight binding. The conditions noted are these: protein: recombinant; tags: N-terminal polyhistidine and DsRed monomer fusion (pET32a); label: CyDye5-dUTP incorporated in the synthesized complementary strand; 3' TTTTT single-stranded linker to array surface; dsDNA, one strand shown. Put shortly: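 Binding signal is reported as fluorescence intensity per feature (arbitrary units) from an Axon 4000B scanner. Incubation used 200 nM of each Ni–NTA-purified, N-terminally polyhistidine- and DsRed-fused transcription factor from E. coli BL21-CodonPlus on a double-stranded custom Agilent array for 1 h at 25 °C, with 50 µM zinc acetate in the buffer, followed by washing.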
For “TGTGTGATTGCTGTTCTTCTCTCTCGCGTCCACGTTCGCGCGGAGTCACCTAGTGCAG”, the binding signal was 29800 fluorescence intensity (a.u.).
Then “AAATCAGAAATCAATTAATACGCCAAGGGGAAGATCATGCCGGAGTCACCTAGTGCAG”, with 6910 fluorescence intensity (a.u.).
Turning to “TTTCAATCCAACGGTGATGAGCGCGACCGCTCAATTTGCACGGAGTCACCTAGTGCAG”, the binding signal is 7210 fluorescence intensity (a.u.).
Then “CAGTTCATTTCTGAAATTGATTTTAACTTTTAAGAAAGGTCGGAGTCACCTAGTGCAG”, with 8880 fluorescence intensity (a.u.); and “ATTCCTAATGTTTGACTGACAGGTGGGGTCTGGTGAATTCCGGAGTCACCTAGTGCAG”, with 9010 fluorescence intensity (a.u.); and “TCAAATAAATTGATGGTAAACTCAGGGATATATAAAGAATCGGAGTCACCTAGTGCAG”, with 24300 fluorescence intensity (a.u.).
In the case of “AATAAATCAATTATTAACCTTATATATCCATAAGGGTATTCGGAGTCACCTAGTGCAG” it was 24300 fluorescence intensity (a.u.).
Then “GTTGTATGATTGACACTAGATCGAGAAAAGGTGCGACAAACGGAGTCACCTAGTGCAG”, with 23500 fluorescence intensity (a.u.); and “CTAATTAAGAAATTGCAATCACTGTCTGTATGTAACATCACGGAGTCACCTAGTGCAG”, with 31000 fluorescence intensity (a.u.).
Regarding “CATAAAAGTAGATTTGACGTAACTACATATGCAGTTGAGCCGGAGTCACCTAGTGCAG”, the binding signal was 4250 fluorescence intensity (a.u.).
Take “CTACACGATTGATACCTACAGCCACGCCGTCGAATCCGTTCGGAGTCACCTAGTGCAG”: the binding signal is 12600 fluorescence intensity (a.u.).
Then “TTAGATTTGTAGCTATCGGATTGTCTTGAGATTTGAGTATCGGAGTCACCTAGTGCAG”, with 6330 fluorescence intensity (a.u.).
In the case of “TTGATTTACAAGTTAGAAACCAACTCCTGTTGATAACTATCGGAGTCACCTAGTGCAG” it was 15200 fluorescence intensity (a.u.).
In the case of “AGTAATTACAAATCTACCCTATAATTCACCAACCCACTCTCGGAGTCACCTAGTGCAG” it was 20800 fluorescence intensity (a.u.).
Consider “AACAATGCGTGCGATGCTTGATTGATGCGTGGGACGACATCGGAGTCACCTAGTGCAG”, for which the binding signal was 9450 fluorescence intensity (a.u.).
Then “TCTAAATGTAATTATATTTTACTTTCACAAAACTCTAAAACGGAGTCACCTAGTGCAG”, with 4980 fluorescence intensity (a.u.); and “AGCAAAATTCTCTCAATATGTGATTGCATGATAAATATGTCGGAGTCACCTAGTGCAG”, with 3220 fluorescence intensity (a.u.); and “CCATAACGTGGAAATTTCGTTGATAGCTCGCTAGCTGCAACGGAGTCACCTAGTGCAG”, with 5920 fluorescence intensity (a.u.).
In the case of “AGGCAAAATTGACAAAGAGATAAGAAACCATCAAAATAATCGGAGTCACCTAGTGCAG” it was 3500 fluorescence intensity (a.u.); in that of “GGTAAACTGTCAGTTTAAATTTGTTATGTTTTCATTGTGTCGGAGTCACCTAGTGCAG”, 46000 fluorescence intensity (a.u.).
In the case of “AACTTGAACGATAATTATGTTCGATTTGTAAAATTCTAATCGGAGTCACCTAGTGCAG” it was 4700 fluorescence intensity (a.u.).
For the sequence “ATGACGTACAATCAAGGACGCGCAATACAGATAATTAAGCCGGAGTCACCTAGTGCAG”, the binding signal is 7000 fluorescence intensity (a.u.).
In the case of “TGCGTGATGATATATTGACTGCTCCATCTCTCGTCTCGCGCGGAGTCACCTAGTGCAG” it was 17900 fluorescence intensity (a.u.).
Consider “ATATTTATAATTAATTTAATAGCTAATTCATACTCCAATACGGAGTCACCTAGTGCAG”, for which the binding signal was 27300 fluorescence intensity (a.u.).
With “GCGTGATTGACGCGGAACCCGAGGTGGACGGACTATGGAACGGAGTCACCTAGTGCAG”, the binding signal was 38900 fluorescence intensity (a.u.).
In the case of “TATATATTGATTAAAATTTATAAAACTATTGATCAAATTACGGAGTCACCTAGTGCAG” it was 4060 fluorescence intensity (a.u.); in that of “ATATTTAAACAGAAACCACTTAATTAAAACTGAGACGAAACGGAGTCACCTAGTGCAG”, 6060 fluorescence intensity (a.u.).
For the sequence “CTCTCGATTAGATATATTTACATGCCTCTTCCGAATACATCGGAGTCACCTAGTGCAG”, the binding signal is 4500 fluorescence intensity (a.u.).
Then “TTGACTGATAGAAATAAGCACGATAAAATAGCCGTGGAGTCGGAGTCACCTAGTGCAG”, with 26600 fluorescence intensity (a.u.); and “AGGATAATTATTCCGTCGGCCGACCACCAAGAAACTACCACGGAGTCACCTAGTGCAG”, with 15200 fluorescence intensity (a.u.); and “ATACTCTACTCAATTAACGATAGACTAACTTGTTCTACGTCGGAGTCACCTAGTGCAG”, with 16000 fluorescence intensity (a.u.).
On to “TTAATTAAATATTAATTGTTTTGAACTCTTGGATGAATACCGGAGTCACCTAGTGCAG”, for which the binding signal was 32000 fluorescence intensity (a.u.).
Take “GGGCTTAATTAATTGCTGGGATAATCACGATCGGATTCAGCGGAGTCACCTAGTGCAG”: the binding signal is 34600 fluorescence intensity (a.u.).
In the case of “AATTTAACTTTAATTTCAAATTTTAAATTTTGGATACGGCCGGAGTCACCTAGTGCAG” it was 13200 fluorescence intensity (a.u.); in that of “CTTTGTAGACTGACAGTGATAGTATTGTACTGCTATACGTCGGAGTCACCTAGTGCAG”, 9250 fluorescence intensity (a.u.); in that of “TATTTAATCAAACTAATTTGGTATCTTAGATGTTGCTAATCGGAGTCACCTAGTGCAG”, 19600 fluorescence intensity (a.u.).
Then “CATATAGATTTAACATTGGTTTTATCACAAAACTATAACTCGGAGTCACCTAGTGCAG”, with 3770 fluorescence intensity (a.u.); and “CACAACCAACTGATTGAAGACGTCCACGTGCTTCCTAAGACGGAGTCACCTAGTGCAG”, with 37600 fluorescence intensity (a.u.); and “CACTGCCTTGATTAGTGGGGCAGCAGTACCTTGTTATGCCCGGAGTCACCTAGTGCAG”, with 11600 fluorescence intensity (a.u.).
In the case of “GAACTAATTTGCAGGGTAGCAGAAATAAGTTGTTGCTGCACGGAGTCACCTAGTGCAG” it was 10900 fluorescence intensity (a.u.).
Regarding “ATACATCAACCTAATTGCTTTATATTGGGATGGAGGGAGTCGGAGTCACCTAGTGCAG”, the binding signal was 5120 fluorescence intensity (a.u.).
For “ATTATCTTTCTAATCAATTAATTAAACGCAAAATCAGTAGCGGAGTCACCTAGTGCAG”, the binding signal is 25400 fluorescence intensity (a.u.).
